The source of these data is publication doi:10.1101/2023.03.14.532528, “Nanobodies against SARS-CoV-2 reduced virus load in the brain of challenged mice and neutralized Wuhan, Delta and Omicron Variants” (bioRxiv, 2023).

For the test, the target named is T1, SARS-CoV-2 receptor binding domain (RBD) of the Spike protein, Wuhan-Hu-1 (WT) (SARS-CoV-2 (Wuhan-Hu-1)).
T1 construct: also called SARS-CoV-2-RBD
The experiment in a line: ELISA; competition (surrogate virus neutralization) ELISA: RBD adsorbed overnight at 4°C at 0.2 ug/well in carbonate/bicarbonate buffer pH 9.6, blocked with 3% skimmed milk; two-fold dilutions of Nbs (from 1 uM) 1 h at room temperature, then ACE2-HRP 2 h at RT; TMB, read at 450 nm. The note with it: both partners purified. (An ELISA detects its analyte on a solid surface through an enzyme-linked reagent.)

B1: ACE2s-HRP (soluble ACE2 fused to horseradish peroxidase) (receptor)
chain: not shown
notes: also called ACE2-HRP; ACE2 receptor; not shown: HRP, C-terminal, kept
As for B1, the binding result is “binds”.
